Test results reported in the supplement of paper PMC8728848.
The other results are listed elsewhere or left out.

How the values were obtained:
Experiment in all cases: glycan array binding signal (z-score within array); higher = stronger binding
Conditions in all cases: glycan notation: IUPAC condensed, linker removed
[1] = molecular target: Fuc(a1-2)Gal
Method in brief: (§1)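 The binding signal is a Z-score computed within each array. Data were drawn from 3228 arrays in the Consortium for Functional Glycomics database, restricted to those with a known protein sequence. Scores were averaged over arrays of the same protein sequence at different concentrations or buffers, and over linkers, and negative values can be taken as non-binding.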

[2] = molecular target: Fuc(a1-2)Gal(b1-3)GalNAc
Method in brief: as §1

[3] = molecular target: Fuc(a1-2)Gal(b1-3)GalNAc(a1-3)[Fuc(a1-2)]Gal(b1-4)Glc
Method in brief: as §1

[4] = molecular target: Fuc(a1-2)Gal(b1-3)GalNAc(a1-3)[Fuc(a1-2)]Gal(b1-4)GlcNAc
Method in brief: as §1

[5] = molecular target: Fuc(a1-2)Gal(b1-3)GalNAc(b1-3)Gal
Method in brief: as §1

[6] = molecular target: Fuc(a1-2)Gal(b1-3)GalNAc(b1-3)Gal(a1-4)Gal(b1-4)Glc
Method in brief: as §1

[7] = molecular target: Fuc(a1-2)Gal(b1-3)GalNAc(b1-4)[Neu5Ac(a2-3)]Gal(b1-4)Glc
Method in brief: as §1

[8] = molecular target: Fuc(a1-2)Gal(b1-3)GlcNAc
Method in brief: as §1

[9] = molecular target: Fuc(a1-2)Gal(b1-3)GlcNAc(b1-2)Man(a1-3)[Fuc(a1-2)Gal(b1-3)GlcNAc(b1-2)Man(a1-6)]Man(b1-4)GlcNAc(b1-4)GlcNAc
Method in brief: as §1

[10] = molecular target: Fuc(a1-2)Gal(b1-3)GlcNAc(b1-2)Man(a1-3)[Fuc(a1-2)Gal(b1-3)GlcNAc(b1-2)Man(a1-6)]Man(b1-4)GlcNAc(b1-4)[Fuc(a1-6)]GlcNAc
Method in brief: as §1

[11] = molecular target: Fuc(a1-2)Gal(b1-3)GlcNAc(b1-3)Gal(b1-4)Glc
Method in brief: as §1

[12] = molecular target: Fuc(a1-2)Gal(b1-3)GlcNAc(b1-3)GalNAc
Method in brief: as §1

[13] = molecular target: Fuc(a1-2)Gal(b1-3)GlcNAc(b1-3)[Fuc(a1-2)Gal(b1-3)GlcNAc(b1-6)]GalNAc
Method in brief: as §1

[14] = molecular target: Fuc(a1-2)Gal(b1-3)GlcNAc(b1-3)[Gal(b1-4)GlcNAc(b1-6)]Gal(b1-4)Glc
Method in brief: as §1

[15] = molecular target: Fuc(a1-2)Gal(b1-3)GlcNAc(b1-3)[Neu5Ac(a2-6)Gal(b1-4)GlcNAc(b1-6)]Gal(b1-4)Glc
Method in brief: as §1

[16] = molecular target: Fuc(a1-2)Gal(b1-3)GlcNAc6S
Method in brief: as §1

[17] = molecular target: Fuc(a1-2)Gal(b1-3)[Fuc(a1-4)]GlcNAc
Method in brief: as §1

[18] = molecular target: Fuc(a1-2)Gal(b1-3)[Fuc(a1-4)]GlcNAc(b1-2)Man(a1-3)[Fuc(a1-2)Gal(b1-3)[Fuc(a1-4)]GlcNAc(b1-2)Man(a1-3)]Man(b1-4)GlcNAc(b1-4)GlcNAc
Method in brief: as §1

[19] = molecular target: Fuc(a1-2)Gal(b1-3)[Fuc(a1-4)]GlcNAc(b1-2)Man(a1-3)[Fuc(a1-2)Gal(b1-3)[Fuc(a1-4)]GlcNAc(b1-2)Man(a1-6)]Man(b1-4)GlcNAc(b1-4)[Fuc(a1-6)]GlcNAc(b1-4)[Fuc(a1-6)]GlcNAc
Method in brief: as §1

[20] = molecular target: Fuc(a1-2)Gal(b1-3)[Fuc(a1-4)]GlcNAc(b1-3)[Fuc(a1-3)[Gal(b1-4)]GlcNAc(b1-6)]Gal(b1-4)Glc
Method in brief: as §1

[21] = molecular target: Fuc(a1-2)Gal(b1-3)[Fuc(a1-4)]GlcNAc(b1-3)[Gal(b1-4)GlcNAc(b1-6)]Gal(b1-4)Glc
Method in brief: as §1

[22] = molecular target: Fuc(a1-2)Gal(b1-4)Glc
Method in brief: as §1

[23] = molecular target: Fuc(a1-2)Gal(b1-4)Glc6S
Method in brief: as §1

[24] = molecular target: Fuc(a1-2)Gal(b1-4)GlcNAc
Method in brief: as §1

[25] = molecular target: Fuc(a1-2)Gal(b1-4)GlcNAc(b1-2)Man
Method in brief: as §1

[26] = molecular target: Fuc(a1-2)Gal(b1-4)GlcNAc(b1-2)Man(a1-3)[Fuc(a1-2)Gal(b1-4)GlcNAc(b1-2)Man(a1-6)]Man(b1-4)GlcNAc(b1-4)GlcNAc
Method in brief: as §1

[27] = molecular target: Fuc(a1-2)Gal(b1-4)GlcNAc(b1-2)Man(a1-3)[Fuc(a1-2)Gal(b1-4)GlcNAc(b1-2)Man(a1-6)]Man(b1-4)GlcNAc(b1-4)[Fuc(a1-6)]GlcNAc
Method in brief: as §1

[28] = molecular target: Fuc(a1-2)Gal(b1-4)GlcNAc(b1-2)[Fuc(a1-2)Gal(b1-4)GlcNAc(b1-4)]Man(a1-3)[Fuc(a1-2)Gal(b1-4)GlcNAc(b1-2)Man(a1-6)]Man(b1-4)GlcNAc(b1-4)GlcNAc
Method in brief: as §1

[29] = molecular target: Fuc(a1-2)Gal(b1-4)GlcNAc(b1-3)Gal(b1-4)GlcNAc
Method in brief: as §1

[30] = molecular target: Fuc(a1-2)Gal(b1-4)GlcNAc(b1-3)Gal(b1-4)GlcNAc(b1-2)Man(a1-3)[Fuc(a1-2)Gal(b1-4)GlcNAc(b1-3)Gal(b1-4)GlcNAc(b1-2)Man(a1-6)]Man(b1-4)GlcNAc(b1-4)GlcNAc
Method in brief: as §1

[31] = molecular target: Fuc(a1-2)Gal(b1-4)GlcNAc(b1-3)Gal(b1-4)GlcNAc(b1-3)Gal(b1-4)GlcNAc
Method in brief: as §1

[32] = molecular target: Fuc(a1-2)Gal(b1-4)GlcNAc(b1-3)GalNAc
Method in brief: as §1

[33] = molecular target: Fuc(a1-2)Gal(b1-4)GlcNAc(b1-3)[Fuc(a1-2)Gal(b1-4)GlcNAc(b1-6)]GalNAc
Method in brief: as §1

[34] = molecular target: Fuc(a1-2)Gal(b1-4)GlcNAc(b1-3)[Fuc(a1-3)[Gal(b1-4)]GlcNAc(b1-6)]Gal(b1-4)Glc
Method in brief: as §1

[35] = molecular target: Fuc(a1-2)Gal(b1-4)GlcNAc(b1-6)GalNAc
Method in brief: as §1

[36] = molecular target: Fuc(a1-2)Gal(b1-4)GlcNAc6S
Method in brief: as §1

[37] = molecular target: Fuc(a1-2)Gal(b1-4)[Fuc(a1-3)]GlcNAc
Method in brief: as §1

[38] = molecular target: Fuc(a1-2)Gal(b1-4)[Fuc(a1-3)]GlcNAc(b1-2)Man(a1-3)[Fuc(a1-2)Gal(b1-4)[Fuc(a1-3)]GlcNAc(b1-2)Man(a1-6)]Man(b1-4)GlcNAc(b1-4)[Fuc(a1-6)]GlcNAc
Method in brief: as §1

[39] = molecular target: Fuc(a1-2)Gal(b1-4)[Fuc(a1-3)]GlcNAc(b1-2)[Fuc(a1-2)Gal(b1-4)[Fuc(a1-3)]GlcNAc(b1-4)]Man(a1-3)[Fuc(a1-2)Gal(b1-4)[Fuc(a1-3)]GlcNAc(b1-2)Man(a1-6)]Man(b1-4)GlcNAc(b1-4)GlcNAc
Method in brief: as §1

[40] = molecular target: Fuc(a1-2)Gal(b1-4)[Fuc(a1-3)]GlcNAc(b1-3)Gal(b1-4)[Fuc(a1-3)]GlcNAc
Method in brief: as §1

[41] = molecular target: Fuc(a1-2)Gal(b1-4)[Fuc(a1-3)]GlcNAc(b1-3)Gal(b1-4)[Fuc(a1-3)]GlcNAc(b1-3)Gal(b1-4)[Fuc(a1-3)]GlcNAc
Method in brief: as §1

[42] = molecular target: Fuc(a1-2)Gal(b1-4)[Fuc(a1-3)]GlcNAc(b1-3)GalNAc
Method in brief: as §1

[43] = molecular target: Fuc(a1-2)Gal(b1-4)[Fuc(a1-3)]GlcNAc(b1-3)[Neu5Ac(a2-6)Gal(b1-4)GlcNAc(b1-6)]Gal(b1-4)Glc
Method in brief: as §1

[44] = molecular target: Fuc(a1-2)Gal3S(b1-4)GlcNAc
Method in brief: as §1

[45] = molecular target: Fuc(a1-2)Gal6S(b1-3)GlcNAc
Method in brief: as §1

B1: OGAA (protein)
chain: MVQKESQATLEERESELSSNPAASAGASLEPPAAPAPGEDNPAGAGGAAVAGAAGGARRFLCGVVEGFYGRPWVMEQRKELFRRLQKWELNTYLYAPKDDYKHRMFWREMYSVEEAEQLMTLISAAREYEIEFIYAISPGLDITFSNPKEVSTLKRKLDQVSQFGCRSFALLFADIDHNMCAADKEVFSSFAHAQVSITNEIYQYLGEPETFLFCPTEYCGTFCYPNVSQSPYLRTVGEKLLPGIEVLWTGPKVVSKEIPVESIEEVSKIIKRAPVIWDNIHANDYDQKRLFLGPYKGRSTELIPRLKGVLTNPNCEFEANYVAIHTLATWYKSNMNGVRKDVVMTDSEDSTVSIQIKLENEGSDEDIETDVLYSPQMALKLALTEWLQEFGVPHQY
B1 was tested, and the “glycan array binding signal (z-score)” value [1] was -0.067, the “glycan array binding signal (z-score)” value [2] was -0.064 and the “glycan array binding signal (z-score)” value [3] was -0.075. For the same binder, the “glycan array binding signal (z-score)” value [4] was -0.085, the “glycan array binding signal (z-score)” value [5] was -0.117 and the “glycan array binding signal (z-score)” value [6] was -0.109. For the same binder, the “glycan array binding signal (z-score)” value [7] was -0.092, the “glycan array binding signal (z-score)” value [8] was -0.023 and the “glycan array binding signal (z-score)” value [9] was -0.104. For the same binder, the “glycan array binding signal (z-score)” value [10] was 0.026, the “glycan array binding signal (z-score)” value [11] was -0.057 and the “glycan array binding signal (z-score)” value [12] was 0.009. The “glycan array binding signal (z-score)” value [13] was -0.11, the “glycan array binding signal (z-score)” value [14] was -0.078 and the “glycan array binding signal (z-score)” value [15] was -0.099. For the same binder, the “glycan array binding signal (z-score)” value [16] was -0.081, the “glycan array binding signal (z-score)” value [17] was -0.076 and the “glycan array binding signal (z-score)” value [18] was 0.285. The “glycan array binding signal (z-score)” value [19] was 0.251, the “glycan array binding signal (z-score)” value [20] was -0.101 and the “glycan array binding signal (z-score)” value [21] was -0.127. The “glycan array binding signal (z-score)” value [22] was -0.066, the “glycan array binding signal (z-score)” value [23] was -0.077 and the “glycan array binding signal (z-score)” value [24] was -0.108. The “glycan array binding signal (z-score)” value [25] was -0.087, the “glycan array binding signal (z-score)” value [26] was -0.049 and the “glycan array binding signal (z-score)” value [27] was 0.206. The “glycan array binding signal (z-score)” value [28] was -0.031, the “glycan array binding signal (z-score)” value [29] was -0.086 and the “glycan array binding signal (z-score)” value [30] was 0.006. For the same binder, the “glycan array binding signal (z-score)” value [31] was -0.017, the “glycan array binding signal (z-score)” value [32] was -0.064 and the “glycan array binding signal (z-score)” value [33] was 0.083. For the same binder, the “glycan array binding signal (z-score)” value [34] was -0.108, the “glycan array binding signal (z-score)” value [35] was -0.087 and the “glycan array binding signal (z-score)” value [36] was -0.114. The “glycan array binding signal (z-score)” value [37] was -0.07, the “glycan array binding signal (z-score)” value [38] was 0.139 and the “glycan array binding signal (z-score)” value [39] was -0.076. For the same binder, the “glycan array binding signal (z-score)” value [40] was -0.076, the “glycan array binding signal (z-score)” value [41] was -0.068 and the “glycan array binding signal (z-score)” value [42] was -0.08. For the same binder, the “glycan array binding signal (z-score)” value [43] was -0.036, the “glycan array binding signal (z-score)” value [44] was -0.06 and the “glycan array binding signal (z-score)” value [45] was -0.055.
